The values below come from paper PMC11603075 (Communications Biology, 2024).

Test [1] addresses T1, KDM4E (Homo sapiens, UniProt B2RXH2).
T1 construct: KDM4E1–337; made in house; host or cells: E. coli
T1 sequence (B2RXH2 1-337): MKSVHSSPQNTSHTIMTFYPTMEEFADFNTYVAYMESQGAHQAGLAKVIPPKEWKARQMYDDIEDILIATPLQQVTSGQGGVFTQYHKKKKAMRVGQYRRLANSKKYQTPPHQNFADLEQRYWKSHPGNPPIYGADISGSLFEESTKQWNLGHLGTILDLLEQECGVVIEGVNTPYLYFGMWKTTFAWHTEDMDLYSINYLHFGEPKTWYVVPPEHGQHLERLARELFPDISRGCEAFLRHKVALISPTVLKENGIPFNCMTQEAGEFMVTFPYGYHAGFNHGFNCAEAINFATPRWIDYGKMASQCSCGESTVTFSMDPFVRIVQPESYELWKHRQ
The test can be described thus: MALDI–TOF MS time course of H3(1–21)K9me3 demethylation, cofactor dependence. Format: biochemical. The following applies: 0.6 µM KDM4E, 10 µM peptide; no 2OG; n = 2. How it is done:
(§1) MS-based screening assays with peptides and calf thymus histones were as reported; see Supplementary Table 6 for conditions. Time course assays were based on reported procedures. In brief, equal volumes of the enzyme and substrate solutions were combined to initiate the reaction; 10 µL of 2% (v/v) formic acid (HCOOH) in ddH2O or 100% methanol was added to 10 µL of the reaction mixture to quench reactions at different time points. Unless otherwise stated, time course assays were carried out in triplicate.
MAL DI –TOF MS time courses measuring (a) +16 Da product formation with H2a(1– 20) and (b) demethylation of H3(1–21)K9me3 by KDM4E. Time courses with all components (i.e.
(NH4)2Fe(SO4)2 (Fe(II)), sodium L-ascorbate (Asc) and 2OG), or with one missing component (Fe(II), […]
ascorbate or 2OG) were done. […] Error bars: +/- SD; n = 2
(independent assays). Legend for (a) and (b) can be foun d combined in (b). Condit ions: (a) 2 µM KDM4E, 7 […]
µM (NH4)2Fe(SO4)2, and 50 mM HEPES (pH 7.5). (c,d) Inhibition of arginine hydroxylation (ROH) activity of KDM4E by small molecule 2OG oxygenase inhibitors. ( c ) ROH activity measurements were performed using an LC–MS based assay (Error bars; +/- SD; n = 3 independent assays). Conditions: 10 µM H2a(1 -20) incubated with 1 µM KDM4E, 100 µM sodium L-ascorbate, 10 µM (NH4)2Fe(SO4)2 and 100 µM 2OG.
Reactions wer e quenched after 90 min.
KDM and RDM activity. […]

The next test has as its system KDM4A. The test can be described thus: MALDI–TOF MS demethylation/+16 Da assay, KDM4A. It is filed as biochemical, human. The following applies: 60 min.
Text: (§2) Fig. 2 Histone H2a fragments are KDM5 and KDM4 substrates. […] See Supplementary Table 6 and Supplementary Fig. 2 for assay conditions and quantification, respectively. […] 0-minute MS spectrum in black, 60/90-minute spectrum in red.
as §1, with “triplicate. In some cases, LC–MS was used instead of MALDI-TOF MS to avoid a MALDI matrix induced artefact with the hydroxylated product (Supplementary Fig. 16). […]” for “triplicate.”
(§3) Supplementary Figure 2 Histone H2a peptide fragments are substrates of KDM4s and KDM5s.
(§4) 2 for representative corresponding MALDI–TOF MS traces. Bar graphs comparing % product format ion (+16 Da and demethylation) of H2a(1–20)R3me2a by (a) K DM5 A–D (after 90 minutes) and (b) KDM4A–E ( a ft er 60 minutes), analysed by MALDI– TOF MS. n = (a) 2, (b) 3 (independent assays). See Supplementary Table 6 for assay condit ions. See Figure S13 A 1 for a positive control.
(§5) (also on this page, place not known: formation KDM5A–D (after MALDI–TOF conditions. Figure S13A1 KDM4A KDM4B KDM4C KDM4D KDM4E 80% product formation KDM5A KDM5B KDM5C KDM5D % product formation) […]
(§6) [ E nz ym e] [Peptide] [2OG] [Ascorbate] [(NH4)2F e(S O4)2] [TCEP] Buffer pH7.5 Enzyme Cognate substrate (mM) (mM) (mM) (mM) (mM) (mM) [HE PE S]
(§7) Supplementary Table 6 Summary of MS assay conditions for substrate screening. These conditions enabled efficient turnover of established substrates. Reactions were carried out at 37 °C unless otherwise st ated. […]

A further test has as its system KDM4D. The test can be described thus: MALDI–TOF MS demethylation/+16 Da assay, KDM4D. It is filed as biochemical, human. The note with it: 60 min.
Text: as §2
as §1, with “triplicate. In some cases, LC–MS was used instead of MALDI-TOF MS to avoid a MALDI matrix induced artefact with the hydroxylated product (Supplementary Fig. 16). […]” for “triplicate.”
as §3, §4, §5, §6, §7

The target in test [2] is T1, KDM4E. The experiment in a line: LC–MS conversion (combined RDM and hydroxylation), KDM4E. It is filed as biochemical. The note with it: KDM4E 2 µM, 120 min. The protocol:
as §1, with “triplicate. In some cases, LC–MS was used instead of MALDI-TOF MS to avoid a MALDI matrix induced artefact with the hydroxylated product (Supplementary Fig. 16).” for “triplicate.”
Supplementary Figure 6 Conversion of H2a peptides with increased concentrations of KDM4D.
Comparison of combined RDM and apparent hydroxylation activities of KDM4E and KDM4D with H2a(1– 20) and H2a(1–20 )R3 me2a. (a) Representative LC–MS spectra showing (120-minute incubation) (from top to bottom) KDM4E at 2 µM, KDM4D at 2 µM, and KDM4D at 10 µM with (from left to right) H2 a(1 –2 0 ) a n d […]
shift (hydroxylation). Charge state of labelled ions: [M + H]5+. *Low-level peaks indicating ~5% – 14 Da/+16 Da. (b) Bar graph comparing % product formation by KDM4E and KDM4D of H2a(1–20) and H2a(1– 20)R3me2a; n = 3 (independent assays). Se e Supplementary Table 6 for assay conditions.
(1 picture or pasted object on this page, not shown here)
as §6, §7

For “AR T KQ T AR K[ me 3] ST GGKAPR KQ L A [H3(1–21)K9me3, reference compound]”, the “reaction without 2OG” value at KDM4E [1] is “No reaction was observed without 2OG”.

“Ac - SGR [ me 2a ] GKQ GGKAR AKAKT R SSR [H2a(1–20)R3me2a, H2a(1–20)R3me2a without a biotin tag]”: the “+16 Da (% product formation)” value with KDM4A (replicate 1), in the test on KDM4A (replicate 2), in the test on KDM4A (replicate 3), in the test with KDM4D (replicate 1), in the test with KDM4D (replicate 2) and in the test with KDM4D (replicate 3) was 0% in each case. Further, the “demethylation (% product formation)” value came out at 34.0836% in the test on KDM4A (replicate 1); 37.6163% in the test with KDM4A (replicate 2); 37.264% in the test with KDM4A (replicate 3); 12.4455% in the test with KDM4D (replicate 1); 5.572% in the test with KDM4D (replicate 2); 7.194% with KDM4D (replicate 3). In addition, the “% product formation (combined RDM and apparent hydroxylation)” value at KDM4E [2] (replicate 1) came out at 67.0186%; on KDM4E [2] (replicate 2) it was 79.659%; on KDM4E [2] (replicate 3), 83.5069%.
